Laboratory results as given in the supplement of paper PMC10320760.
This is a noisy data set.

B1: Ydj1; a variant is named by its letters at X, in order (parent)
chain: MVKETKFYDILGVPVTATDVEIKKAYRKCALKYHPDKNPSEEAAEKFKEASAAYEILSDPEKRDIYDQFGEDGLSGAGGAGGFPGGGFGFGDDIFSQFFGAGGAQRPRGPQRGKDIKHEISASLEELYKGRTAKLALNKQILCKECEGRGGKKGAVKKCTSCNGQGIKFVTRQMGPMIQRFQTECDVCHGTGDIIDPKDRCKSCNGKKVENERKILEVHVEPGMKDGQRIVFKGEADQAPDVIPGDVVFIVSERPHKSFKRDGDDLVYEAEIDLLTAIAGGEFALEHVSGDWLKVGIVPGEVIAPGMRKVIEGKGMPIPKYGGYGNLIIKFTIKFPENHFTSEENLKKLEEILPPRIVPAIPKKATVDECVLADFDPAKYNRTRASRGGANYDSDEEEQGGEGVQCXXX

Variants of: B1
Assay: enrichment factor, frequency at 37 °C / frequency at 25 °C (thermotolerance selection) (ratio); higher = more growth at 37 °C, higher likelihood of farnesylation
Conditions: with Saccharomyces cerevisiae ydj1Δ (yWS304); selective temperature 37 °C; reference temperature 25 °C

Row | Variant | enrichment factor
1 | HWT | 2.7
2 | IWT | 0.796
3 | KWT | 1.59
4 | AWT | 3.09
5 | LWT | 0.951
6 | MWT | 1.23
7 | NWT | 2.76
8 | PWT | 1.2
9 | QWT | 4.68
10 | RWT | 1.86
11 | SWT | 2.29
12 | TWT | 5.07
13 | VWT | 1.01
14 | WWT | 1.42
15 | CWT | 0.463
16 | YWT | 2.09
17 | DWV | 0.689
18 | EWV | 0.687
19 | FWV | 1.88
20 | GWV | 1.84
21 | HWV | 3.05
22 | IWV | 0.772
23 | KWV | 1.12
24 | AWV | 0.705

Row | Variant | enrichment factor
25 | LWV | 1.49
26 | MWV | 1.19
27 | NWV | 1.2
28 | PWV | 1.01
29 | QWV | 1.96
30 | RWV | 1.41
31 | SWV | 2.27
32 | TWV | 0.802
33 | VWV | 1.29
34 | WWV | 1.16
35 | CWV | 0.683
36 | YWV | 2.53
37 | DWW | 0.395
38 | EWW | 1.33
39 | FWW | 1.33
40 | GWW | 0.616
41 | HWW | 0.616
42 | IWW | 1.13
43 | KWW | 0.879
44 | AWW | 1.43
45 | LWW | 1.12
46 | MWW | 1.51
47 | NWW | 0.842
48 | PWW | 1.06

Row | Variant | enrichment factor
49 | QWW | 1.02
50 | RWW | 0.995
51 | SWW | 1.02
52 | TWW | 1.51
53 | VWW | 1.41
54 | WWW | 1.75
55 | CWW | 0.664
56 | YWW | 1.16
57 | DWY | 0.311
58 | EWY | 1.56
59 | FWY | 0.961
60 | GWY | 0.368
61 | HWY | 0.825
62 | IWY | 0.989
63 | KWY | 1.05
64 | AWY | 1.61
65 | LWY | 1.16
66 | MWY | 1.19
67 | NWY | 0.849
68 | PWY | 1.35
69 | QWY | 1.9
70 | RWY | 1.24
71 | SWY | 1.3
72 | TWY | 1.68

Row | Variant | enrichment factor
73 | VWY | 1.45
74 | WWY | 0.657
75 | CWY | 0.237
76 | YWY | 0.862
77 | DYA | 1.91
78 | EYA | 1.95
79 | FYA | 2.61
80 | GYA | 2.29
81 | HYA | 3.19
82 | IYA | 2.95
83 | KYA | 1.31
84 | AYA | 1.13
85 | LYA | 1.56
86 | MYA | 1.28
87 | NYA | 2.32
88 | PYA | 1.22
89 | QYA | 2.8
90 | RYA | 2.37
91 | SYA | 1.95
92 | TYA | 4.49
93 | VYA | 1.45
94 | WYA | 2.09
95 | CYA | 0.869
96 | YYA | 4.39

Row | Variant | enrichment factor
97 | DYC | 0.753
98 | EYC | 1.58
99 | FYC | 1.21
100 | GYC | 0.836
101 | HYC | 2.53
102 | IYC | 0.749
103 | KYC | 0.734
104 | AYC | 1.37
105 | LYC | 0.988
106 | MYC | 0.984
107 | NYC | 0.915
108 | PYC | 0.707
109 | QYC | 2.43
110 | RYC | 0.695
111 | SYC | 1.1
112 | TYC | 1.56
113 | VYC | 2.55
114 | WYC | 0.802
115 | CYC | 0.502
116 | YYC | 2.16
117 | DYD | 0.159
118 | EYD | 0.496
119 | FYD | 0.471
120 | GYD | 0.145

Row | Variant | enrichment factor
121 | HYD | 0.441
122 | IYD | 0.651
123 | KYD | 0.467
124 | AYD | 0.953
125 | LYD | 0.645
126 | MYD | 0.224
127 | NYD | 0.108
128 | PYD | 0.25
129 | QYD | 0.54
130 | RYD | 0.539
131 | SYD | 0.288
132 | TYD | 0.544
133 | VYD | 1.55
134 | WYD | 1.16
135 | CYD | 0.547
136 | YYD | 0.432
137 | DYE | 0.291
138 | EYE | 1.53
139 | FYE | 0.544
140 | GYE | 0.443
141 | HYE | 1.71
142 | IYE | 1.8
143 | KYE | 2.23
144 | AYE | 1.75

Row | Variant | enrichment factor
145 | LYE | 2.3
146 | MYE | 1.16
147 | NYE | 1.58
148 | PYE | 1.57
149 | QYE | 2.07
150 | RYE | 1.81
151 | SYE | 1.2
152 | TYE | 1.99
153 | VYE | 1.92
154 | WYE | 2
155 | CYE | 2.07
156 | YYE | 0.483
157 | DYF | 1.6
158 | EYF | 1.25
159 | FYF | 1.34
160 | GYF | 0.955
161 | HYF | 1.84
162 | IYF | 2.57
163 | KYF | 1.28
164 | AYF | 1.71
165 | LYF | 1.95
166 | MYF | 1.39
167 | NYF | 1.54
168 | PYF | 1.55

Row | Variant | enrichment factor
169 | QYF | 1.7
170 | RYF | 2.28
171 | SYF | 1.82
172 | TYF | 1.69
173 | VYF | 1.16
174 | WYF | 0.663
175 | CYF | 0.307
176 | YYF | 1.5
177 | DYG | 0.425
178 | EYG | 1.75
179 | FYG | 1.61
180 | GYG | 1.16
181 | HYG | 1.83
182 | IYG | 1.81
183 | KYG | 1.34
184 | AYG | 1.78
185 | LYG | 1.56
186 | MYG | 1.44
187 | NYG | 1.74
188 | PYG | 1.75
189 | QYG | 1.98
190 | RYG | 1.07
191 | SYG | 1.79
192 | TYG | 1.62

Row | Variant | enrichment factor
193 | VYG | 2.25
194 | WYG | 1.94
195 | CYG | 1.16
196 | YYG | 1.69
197 | DYH | 0.157
198 | EYH | 1.56
199 | FYH | 0.921
200 | GYH | 0.979
201 | HYH | 1.16
202 | IYH | 1.67
203 | KYH | 0.613
204 | AYH | 2.01
205 | LYH | 1.41
206 | MYH | 1.02
207 | NYH | 0.949
208 | PYH | 0.962
209 | QYH | 1.91
210 | RYH | 1.47
211 | SYH | 1.17
212 | TYH | 1.96
213 | VYH | 3.38
214 | WYH | 1.9
215 | CYH | 1.57
216 | YYH | 0.574

Row | Variant | enrichment factor
217 | DYI | 0.859
218 | EYI | 1.45
219 | FYI | 1.53
220 | GYI | 1.51
221 | HYI | 1.67
222 | IYI | 1.67
223 | KYI | 1.01
224 | AYI | 1.73
225 | LYI | 1.89
226 | MYI | 1.48
227 | NYI | 1.43
228 | PYI | 1.32
229 | QYI | 1.98
230 | RYI | 1.06
231 | SYI | 1.45
232 | TYI | 1.73
233 | VYI | 1.48
234 | WYI | 1.59
235 | CYI | 0.386
236 | YYI | 1.84
237 | DYK | 0.136
238 | EYK | 0.228
239 | FYK | 0.188
240 | GYK | 0.11

Row | Variant | enrichment factor
241 | HYK | 0.256
242 | IYK | 0.0745
243 | KYK | 0.114
244 | AYK | 0.243
245 | LYK | 0.153
246 | MYK | 0.2
247 | NYK | 0.165
248 | PYK | 0.155
249 | QYK | 0.296
250 | RYK | 0.0965
251 | SYK | 0.139
252 | TYK | 0.172
253 | VYK | 0.67
254 | WYK | 0.252
255 | CYK | 0.251
256 | YYK | 0.122
257 | DYL | 0.333
258 | EYL | 1.3
259 | FYL | 1.07
260 | GYL | 1.15
261 | HYL | 1.01
262 | IYL | 1.7
263 | KYL | 0.357
264 | AYL | 1.47

Row | Variant | enrichment factor
265 | LYL | 1.3
266 | MYL | 1.5
267 | NYL | 0.929
268 | PYL | 0.991
269 | QYL | 1.36
270 | RYL | 0.414
271 | SYL | 0.934
272 | TYL | 1.39
273 | VYL | 2.27
274 | WYL | 1.37
275 | CYL | 0.141
276 | YYL | 1.36
277 | DYM | 1.32
278 | EYM | 1.1
279 | FYM | 0.515
280 | GYM | 1.77
281 | HYM | 1.74
282 | KYM | 0.624
283 | AYM | 2.04
284 | LYM | 2.78
285 | MYM | 1.99
286 | NYM | 1.93
287 | PYM | 0.573
288 | QYM | 1.09

Row | Variant | enrichment factor
289 | RYM | 0.579
290 | SYM | 1.3
291 | TYM | 1.38
292 | VYM | 1.39
293 | WYM | 1.01
294 | CYM | 0.711
295 | YYM | 1.79
296 | DYN | 0.29
297 | EYN | 1.62
298 | FYN | 1.43
299 | GYN | 1.36
300 | HYN | 2.22
301 | IYN | 2.06
302 | KYN | 1.3
303 | AYN | 1.95
304 | LYN | 2.55
305 | MYN | 2.17
306 | NYN | 2.29
307 | PYN | 1.86
308 | QYN | 2.36
309 | RYN | 1.45
310 | SYN | 1.86
311 | TYN | 1.96
312 | VYN | 1.75

Row | Variant | enrichment factor
313 | WYN | 1.41
314 | CYN | 1.69
315 | YYN | 1.49
316 | DYP | 0.139
317 | EYP | 0.15
318 | FYP | 1.14
319 | GYP | 0.185
320 | HYP | 0.537
321 | IYP | 0.115
322 | KYP | 0.19
323 | AYP | 0.125
324 | LYP | 0.124
325 | MYP | 0.17
326 | NYP | 0.099
327 | PYP | 0.215
328 | QYP | 0.212
329 | RYP | 0.162
330 | SYP | 0.157
331 | TYP | 0.12
332 | VYP | 0.0893
333 | WYP | 1.09
334 | CYP | 0.797
